The campaign covered roughly 150,000 compounds. About 540 (0.36%) showed an effect of 50% or more. The list shows a part of the results.

This assay deals with Plasmodium falciparum. Put plainly: Primary screen in NF54 nanoGlo assay, in single point, at 2uM, 72h; a lower Z score goes with more inhibition. To be noted: timepoint 72 hour. In kind it is functional, Erythrocyte.
For the compound `O=c1c2nccnc2ccn1CCOCC(F)(F)C(F)F`, the % Inhibition – broadly, the drop in the measured response relative to a control, in per cent – is -2% and the Z score turned out to be 0.28.
For the compound `Cc1ccccc1Oc1ccc(N2C(=O)C3C4c5ccccc5C(c5ccccc54)C3(C)C2=O)cc1` (stereo not given), the “% Inhibition” value was found to be 0% and the Z score stood at 0.06.
`Cc1cc(NC(=O)c2nc(-c3ccccc3)n(-c3ccccc3)n2)[nH]n1`: the “% Inhibition” value is on record as -4% and the Z score was determined as 0.67.
For `Cc1nc(-c2ccc([C@H](C)N(C)C)cc2)nn1C`, in that order: 6% and -1.13.
For `CCc1nc([C@@H]2CCCN2Cc2cn3c(C)cc(C)nc3n2)no1`, in that order: -3% and 0.48.
Turning to `O=C(CCc1cc2n(n1)CCN(C1CCCCC1)C2)NCCO`, the “% Inhibition” value is -10% and the Z score came out at 1.27.
Turning to `CCN1CCN(C(=O)c2cc(C)nc3onc(C)c23)[C@H]2CS(=O)(=O)C[C@H]21`, the “% Inhibition” value is recorded as -2% and the Z score is on record as 0.35.
For `C[C@@H](C(=O)N(C)C)S(=O)(=O)NC1(c2ccc(F)cc2F)CCC1`, in that order: 1% and -0.08.
For `CCn1cc(-c2ccc(OC)cc2)cc1C(=O)N1CCCC1`, the “% Inhibition” value is recorded as -5% and the Z score turned out to be 0.82.
For `CC(CCNC(=O)N1CCOC(C(=O)O)C1)c1cccc(C(F)(F)F)c1` (stereo not given), the “% Inhibition” value is -7% and the Z score is 0.92.
For `CC[C@@H]1NC(=O)N(CCCCOC)C1=O`, in that order: 1% and -0.27.
For `O=C(Cn1ccc2ncccc2c1=O)NCC1CCCCC1`, in that order: -11% and 1.24.
For `Cc1ccccc1OCC(=O)N[C@H]1CCOC[C@@H]1O`, in that order: -1% and 0.18.
For the compound `Cc1cccc(NC(=O)Cn2cc(S(=O)(=O)N3CCCCC3)ccc2=O)c1`, the “% Inhibition” value was determined as 1% and the Z score is -0.19.
For `COc1ccc(N2C(=O)CN(Cc3nc4ccccc4[nH]3)CC2(C)C)cc1`, in that order: -8% and 1.48.
For `CCCc1nnsc1C(=O)NCc1nc(-c2cnn(CC)c2)no1`, the “% Inhibition” value was -18% and the Z score is recorded as 2.25.
Consider `O=c1ccc(C(F)(F)F)cn1CC1CCC1`, for which the “% Inhibition” value was -19% and the Z score is reported as 1.87.
`Cc1cccc(C)c1N[C@@H](C)C(=O)NCc1cncn1C1CC1`: the “% Inhibition” value was 8% and the Z score is -1.34.
Turning to `O=C(Nc1ccsc1)N[C@H]1C[C@H]2C(=O)NC[C@@H](CCC(=O)N3CCCCC3)N2C1`, the “% Inhibition” value was -7% and the Z score turned out to be 1.13.
In the case of `CCn1cc(CCn2cnc(C#N)n2)cn1`, the “% Inhibition” value is on record as -9% and the Z score came out at 1.13.
Regarding `Cc1nn(C)c(C)c1[C@H](C)NCc1cc2cc(Cl)c(Cl)cc2[nH]1`, the “% Inhibition” value is given as 28% and the Z score is recorded as -3.21.
As for `Cc1ccc(S(=O)(=O)N2CC(=O)N(c3ccc(Cl)cc3)[C@](C)(C(=O)NCCC(C)C)C2)cc1`, the “% Inhibition” value is given as -15% and the Z score stood at 1.87.
For `COC(=O)C1CCN(C(=O)N[C@@H]2CCO[C@H](c3ccncc3)C2)C1` (stereo not given in full), in that order: 2% and -0.25.
For `Cc1nc2c(c(=O)n1CC(=O)Nc1cccc(Cl)c1F)CCCC2`, in that order: -5% and 0.68.
As to `Cc1nnc([C@@]23COC[C@@H]2CN(S(=O)(=O)Cc2ccc(C)c(F)c2)C3)o1`, the “% Inhibition” value was -12% and the Z score is listed as 1.5.
Regarding `CCn1ncc(C)c1NC(=O)[C@@H]1CCCCCN1C`, the “% Inhibition” value is -4% and the Z score is reported as 0.67.
For `O=C(NCC1CCCCN1CC1CCOC1)c1ccccc1` (stereo not given), in that order: -16% and 1.69.
For the compound `CC(C)N1CCCC[C@H]1C(=O)NCCc1nccn1C`, the “% Inhibition” value is given as -6% and the Z score worked out at 0.67.
For `CC(C)N(CC(=O)N1CCc2sccc2[C@@H]1COc1ccccc1)C(=O)c1cccs1`, the “% Inhibition” value is -1% and the Z score is reported as 0.15.
For `Cc1ncsc1CCCNC(=O)Cc1c[nH]c(=O)n(C)c1=O`, in that order: -5% and 0.92.
For `Cc1c(C(=O)NCCc2cccc(Cl)c2)nnn1C1CCNCC1`, the “% Inhibition” value is recorded as -13% and the Z score was found to be 2.03.
For `Cc1nc(CNC(=O)N2CCN(CC(F)(F)F)[C@@H](C)C2)oc1C`, in that order: -11% and 1.26.
For `CCOc1ccccc1CCNC(=O)c1ccn2nnnc2c1`, the “% Inhibition” value is recorded as -3% and the Z score worked out at 0.6.
As to `CCn1cnc2c(N3CCCOC3)ncnc21`, the “% Inhibition” value is on record as -5% and the Z score is 0.67.
For `CC(C)(C)NC(=O)Nc1cccc(Cl)c1Cl`, in that order: -6% and 1.13.
As to `Cc1ccc2c(c1C)-n1cccc1C1(CCN(S(=O)(=O)c3ccc(F)c(Cl)c3)CC1)N2`, the “% Inhibition” value is on record as -7% and the Z score was 0.88.
`COc1ncc(CN2CC[C@H](O)CC(C)(C)C2)cn1`: the “% Inhibition” value is recorded as -5% and the Z score worked out at 0.96.
With `Cc1ccc(-c2ocnc2C(=O)Nc2cc(F)ccc2F)o1`, the “% Inhibition” value was determined as 1% and the Z score is -0.24.
On to `O=C([C@@H]1CCCO1)N1CCN(c2ccc3cc[nH]c3n2)CC1`, for which the “% Inhibition” value is recorded as -10% and the Z score was determined as 1.43.
For `CCn1nc(C)c(CN2CCCC3(C2)OCCO3)c1C`, in that order: -6% and 0.8.
For `Cc1ccc(-c2nn(C)c(=O)c3c2CCCC3)cc1S(=O)(=O)NC1CCCCC1`, in that order: -4% and 0.56.
For `COC(=O)CN1CCCC(C(C)O)C1` (stereo not given), the “% Inhibition” value is recorded as -13% and the Z score is on record as 1.89.
On to `Cc1noc([C@@]23CN(C(=O)c4ccccc4)C[C@@H]2CN(C(=O)c2cncnc2)C3)n1`, for which the “% Inhibition” value is listed as -12% and the Z score was found to be 1.56.
For `CCC(CC)C(=O)N(Cc1ccc(OC)c(OC(C)C)c1)C1CCCC1`, in that order: -8% and 1.01.
For `CCc1cnc(N[C@@H](CC)c2ncccc2C)nc1`, in that order: -16% and 2.55.
Turning to `COc1ccc(C(=O)OCC(=O)Nc2cc(C3CC3)nn2-c2ccccc2)c(O)c1`, the “% Inhibition” value was -7% and the Z score is 1.34.
On to `CC[C@H](C)N(Cc1c(C)nn(-c2cccc(F)c2)c1N1CCN(CC)CC1)C(=O)CC(C)C`, for which the “% Inhibition” value is given as -4% and the Z score worked out at 0.53.
For `CCCCC(=O)N1CCc2[nH]nc(C(=O)N3CCN(c4ccc(F)cc4)CC3)c2C1`, in that order: -20% and 1.94.
Take `CCOc1ccc(CNS(=O)(=O)c2ccc(-c3ccno3)cc2OC)cc1OC`: the “% Inhibition” value was -19% and the Z score was found to be 1.7.
On to `NCC#CCOc1cccc(C(F)(F)F)c1`, for which the “% Inhibition” value was -10% and the Z score came out at 1.11.
Turning to `Cn1nc(C(=O)Nc2ccccc2OCC(F)F)cc1C1CC1`, the “% Inhibition” value stood at 3% and the Z score is recorded as -0.54.
For `Cc1nn(CC(=O)N[C@@H](C)c2nncn2C)c(=O)n1-c1ccc2c(c1)OCO2`, the “% Inhibition” value is -9% and the Z score was found to be 1.1.
Regarding `O=C(NCCc1cccnc1)[C@H]1CCc2nc(N3CCCC3)ncc2C1`, the “% Inhibition” value is reported as -5% and the Z score came out at 0.89.
For `CC1CCC(c2ccccc2)N(c2ccc(C#N)nn2)C1` (stereo not given), in that order: 6% and -0.72.
Turning to `O=C(NC(Cc1ccccc1)c1cccs1)C1CCCO1` (stereo not given), the “% Inhibition” value is -18% and the Z score came to 2.33.
For `Cc1cc(NC(=O)CN2CCC(COc3ccccn3)CC2)n(C)n1`, in that order: 5% and -0.69.
For `Cc1cccnc1NC(=O)c1ccc(CN2CCNC(=O)[C@@H]2CCO)cc1`, in that order: -4% and 0.49.
For `Cn1nccc1C(=O)Nc1nnc(-c2ccco2)o1`, in that order: -7% and 1.23.
As to `O=C(c1c[nH]c(=O)c(Cl)c1)N1CC[C@@]2(CCCN(CCC3CCCCC3)C2)C1`, the “% Inhibition” value is 4% and the Z score is -0.61.
For `COC(=O)c1ccc(-c2nc(CN3CCn4c(C)ccc4[C@@H]3C)c(C)o2)cc1`, in that order: -3% and 0.48.
For `Cc1ncsc1CCn1ccc(C#N)cc1=O`, the “% Inhibition” value is -10% and the Z score turned out to be 0.98.
For `CCc1nnsc1C(=O)Nc1nc2ccc(C)cc2s1`, in that order: -15% and 2.28.
For `c1ccc(-c2c[nH]c3scc[n+]23)cc1`, in that order: -8% and 1.02.
`Cc1cc(C2CCC2)nc(NC[C@H]2COCCO2)n1`: the “% Inhibition” value is recorded as -10% and the Z score was 1.59.
With `CC(C)N1C2CCC1CN(C(=O)NCc1ccccc1)CC2` (stereo not given), the “% Inhibition” value came out at 29% and the Z score is -3.96.
Take `COc1cc(C)cc(-c2cc(C(=O)O)cc(S(=O)(=O)N3CCOCC3)c2)c1OC`: the “% Inhibition” value was -2% and the Z score turned out to be 0.31.
Consider `Cc1ccc([C@H](C)NCCN2C(=O)NC(C)(C)C2=O)o1`, for which the “% Inhibition” value is -7% and the Z score turned out to be 0.7.
For `CCOC(=O)c1nsc2c(OCC)ncnc12`, in that order: -2% and 0.27.
For `Cc1n[nH]c(C)c1CC(=O)NCCc1nc(C2CCCCC2)cs1`, in that order: 4% and -0.53.
For `OCC#Cc1csc(CN(Cc2cccnc2)C2CCCCCC2)c1`, in that order: -12% and 1.65.
On to `CC[C@H](NS(C)(=O)=O)c1ccc(Cl)cc1`, for which the “% Inhibition” value is recorded as 6% and the Z score is given as -1.11.
Regarding `COCc1noc(CN2CC[C@H](c3nccc(C(F)(F)F)n3)C2)n1`, the “% Inhibition” value is recorded as -2% and the Z score was determined as 0.33.
For `O=S1(=O)CC(O)C(Nc2ccc3c(c2)OCCO3)C1` (stereo not given), in that order: -8% and 1.02.
For `CCc1c([C@H](C)NCc2ncnn2C)oc2ccccc12`, in that order: -3% and 0.56.
In the case of `Cc1cc(C)nc(/N=C(/NC(=O)Nc2ccc(Cl)c(Cl)c2)N2CCC(Cc3ccccc3)CC2)n1`, the “% Inhibition” value is 5% and the Z score is given as -0.48.
In the case of `COc1ccc(-c2c(C(=O)N3CCOCC3)nn3c(C)cc(C)nc23)cc1S(=O)(=O)N1CCCCC1`, the “% Inhibition” value was -16% and the Z score is 2.66.
For `CC(C)CC(=O)N[C@@H]1CCC[C@@H](C(=O)N2CCN(C)CC2)CC(=O)N(C)C1`, in that order: 1% and -0.18.
For `CO[C@H]1C[C@H]2CN(C(=O)c3cncn3C)[C@@H](Cc3ccccc3)C(=O)N2C1`, in that order: -11% and 1.75.
For `CC(NC(=O)C(OC(C)(C)C)c1ccccc1)c1cnn(C)c1` (stereo not given), in that order: -8% and 0.91.
As to `O=C(NCC1CCN(c2cnsn2)CC1)[C@H]1CC12CC2`, the “% Inhibition” value was -1% and the Z score stood at 0.17.
For `O=S(=O)(CCn1ccnc1-c1ccc(-c2cc[nH]n2)s1)N1CCCC1`, in that order: 0% and 0.03.
For `CN(C)c1cc([C@H]2C[C@@H](O)C2)nc(N)n1`, in that order: -10% and 0.97.
For `CCc1nnc(CN2CCCCCC2CC(O)c2cccs2)o1` (stereo not given), in that order: -6% and 0.59.
On to `COc1cccc(C2C(NC(=O)c3cscn3)CCN2C2CC2)c1` (stereo not given), for which the “% Inhibition” value is -15% and the Z score was 1.71.
For `CC(C)(C)[C@@H](C#N)NC(=O)c1ccc(-n2ccnn2)cc1`, in that order: -10% and 1.41.

Values taken from ChEMBL document CHEMBL4888484, “Replenishing the malaria drug discovery pipeline: Screening and hit evaluation of the MMV Hit Generation Library 1 (HGL1) against asexual blood stage Plasmodium falciparum ,using a nano luciferase reporter read-out” (2022).
